Experimental findings from PubChem BioAssay AID463173 (ICCB-Longwood Screening Facility, Harvard Medical School, 2010) are described below.

Out of some 52,000 compounds screened, about 4,300 (8.3%) were called active. Rule as the data show it: active = survival mostly below about 52% (no sharp cut-off); inactive = mostly above about 56%. The list shows a part of the results.

This assay concerns DeltatarO mutant. Description: S. aureus survival, RN4220 and DeltatarO strains – OD600, teichoic acid synthesis inhibitors, primary screen (AID 463173). As to conditions: S. aureus RN4220 wild type/DeltatarO growth, OD600, 18 h, stronger effect = lower value, screened at 18.75 µg/mL (by protocol).
As for `O=C(Cn1c(=O)n(Cc2cccs2)c(=O)c2cccnc21)Nc1ccccc1F`, the survival is inactive: 73%. Then `O=C(NCCc1ccc(Cl)cc1)c1cccn1-c1nnc(N2CCCCC2)s1`, with inactive: 98%. Then `Cc1cccc(NC(=O)CSc2nc3c(c(=O)[nH]2)CN(Cc2ccc4c(c2)OCO4)CC3)c1C`, with inactive: 78%; and `O=C(Nc1nc2n(n1)C(c1ccc(F)cc1)C=C(c1ccc(Cl)cc1)N2)c1ccco1` (stereo unspecified), with active: 16%. Then `CCOC(=O)c1ccc(N2C(=O)c3n[nH]c(-c4cccs4)c3C2c2ccc(O)c(OC)c2)cc1` (stereo unspecified), with inactive: 72%; and `CCN(C(=O)CCS(=O)(=O)c1cccc2nsnc12)c1cccc(C)c1`, with inactive: 74%.

For the compound `CCN(C(=O)c1cc2c(s1)-c1c(C)cccc1OC2)c1cc(C)ccc1C`, the survival is active: -1%.

As to `O=C(NCC12CC3CC(CC(C3)C1)C2)c1cc2nc(-c3ccc(Cl)cc3)cc(C(F)(F)F)n2n1`, the survival is active: 31%. Regarding `COc1ccc(CCNC(=O)Cc2c(C)c3cc(OC)c(OC)cc3oc2=O)cc1`, the survival was inactive: 50%. As for `CCN(CC)CC(=O)c1c[nH]c2ccccc12`, the figure is inactive: 105%. Then `Cc1cccc(C)c1OCC(=O)Nc1nonc1-c1ccc(Br)cc1`, with active: 41%; and `Cc1ccc(C(=O)Nc2ccc(-n3c(C)nc4ccccc4c3=O)cc2)cc1[N+](=O)[O-]`, with inactive: 117%; and `COc1ccc(NC(=O)C2CCN(C(=O)c3sc4nc[nH]c(=O)c4c3C)CC2)c(OC)c1`, with inactive: 91%.

`CC(=O)OCc1cnc(C)c2oc(=O)c(C(=O)Nc3ccc(F)cc3C)cc12`: the survival is inactive: 122%. Then `Cc1cccc(N2CCN(c3nc4ccccc4c4nc(-c5ccccc5)nn34)CC2)c1C`, with inactive: 92%; and `CCc1ccccc1N1CC(c2nnc(NC(=O)c3ccco3)s2)CC1=O` (stereo unspecified), with inactive: 85%. As for `CCN(CC)S(=O)(=O)c1ccc2c(c1)N(CC(=O)N1CCN(c3cc(Cl)ccc3C)CC1)C(=O)CO2`, the figure is inactive: 71%; as for `CCOc1ccc(CNC(=O)C2CCN(C3=NS(=O)(=O)C(c4ccc(C)cc4)=C3CC)CC2)cc1`, inactive: 72%. As for `COc1cc(NC(=O)c2cc(-c3ccccc3O)no2)cc(OC)c1OC`, the figure is inactive: 67%. Consider `CC(=O)Nc1nonc1-c1nnc(SCC(=O)Nc2ccccc2Cl)n1C`, for which the survival is inactive: 50%. As for `Clc1cccc(-c2nnc(CN3CCN(c4ccccn4)CC3)o2)c1`, the figure is inactive: 82%; as for `COC(=O)c1c(SCC(=O)Nc2cccc(C(F)(F)F)c2)[nH]c2ccccc2c1=O`, inactive: 82%; as for `COc1ccc(NC(=O)C(CC(C)C)NC(=O)C2CCCCC2)c(OC)c1` (stereo unspecified), inactive: 71%.

In the case of `Cc1cc(S(=O)(=O)Nc2cc3c(cc2N2CCOCC2)n(C)c(=O)n3C)ccc1F`, the survival is inactive: 80%. With `COc1ccc(-n2c(=O)c3ccccc3n(Cc3ccc(F)cc3Cl)c2=O)cc1OC`, the survival is inactive: 103%.

On to `COCCNc1c(-c2ccc(N)cc2)nc2ccc(C)cn12`, for which the survival is inactive: 65%.

`COc1ccc(N2CCN(CCCNC(=O)Nc3ccccc3Cl)CC2)cc1`: the survival is inactive: 81%.

Turning to `COc1ccc(CCNC(=O)CN(c2ccc(C)cc2)S(=O)(=O)c2ccc(OC)cc2)cc1`, the survival was inactive: 67%. As for `CCOc1ccc(-c2nc3c(c(SCC(=O)N4CCCCC4)n2)Cc2cc(C)ccc2O3)cc1`, the figure is inactive: 88%; as for `COC(=O)CN(Cc1ccccc1)S(=O)(=O)c1ccc2c(c1)OCCO2`, inactive: 97%. Then `CCOc1ccc(CN2C(=O)c3ccccc3Sc3ccc(C(=O)N4CCN(C)CC4)cc32)cc1`, with inactive: 85%. Then `CCC(CC)C(=O)Nc1c(C(=O)N2CCN(c3ccccc3F)CC2)oc2ccccc12`, with inactive: 100%.

`CCC(Sc1nc2cc(OC)c(OC)cc2c(=O)n1Cc1ccc(Cl)cc1)C(=O)NCCOC` (stereo unspecified): the survival was inactive: 91%.

With `COc1ccc(OC)c(NC(=O)CSC2=Nc3ccccc3C3=NC(CCC(=O)NCc4ccco4)C(=O)N23)c1` (stereo unspecified), the survival is inactive: 78%. As for `O=S1(=O)c2ccccc2N(Cc2ccc(Cl)cc2F)c2ccccc21`, the figure is inactive: 84%; as for `CN(C)S(=O)(=O)c1ccc2c(c1)c(=O)c(C(=O)N1CCN(c3cccc(Cl)c3)CC1)cn2C`, inactive: 95%. As for `CCOC(=O)c1ccc(NC(=O)CN(c2ccc(C)cc2)S(=O)(=O)c2ccc(OC)cc2)cc1`, the survival is inactive: 127%. As to `CCC(=O)Nc1nnc(S(=O)(=O)N(C)Cc2ccc(Cl)cc2)s1`, the survival was inactive: 94%. As for `CCOc1ccccc1NC(=O)CSC1=Nc2ccccc2C2=NC(CC(=O)NC3CCCCC3)C(=O)N12` (stereo unspecified), the figure is inactive: 70%; as for `COc1ccc(OC)c(NC(=O)CSc2n[nH]c(-c3ccccc3Cl)n2)c1`, inactive: 96%; as for `c1ccc(-c2cn(-c3ccccc3)c3ncnc(N4CCN(c5ccccc5)CC4)c23)cc1`, inactive: 90%. As for `CC(N=C1NC(C)(C)Cc2ccccc21)C(=O)O` (stereo unspecified), the figure is inactive: 99%; as for `CC(C)OC(=O)c1cc2c(ccn2C)n1CC(=O)N(Cc1ccccc1)c1ccccc1`, inactive: 58%. As for `CCOC(=O)CC(NC(=O)c1cc2cc(Cl)ccc2oc1=O)c1ccc(C)cc1` (stereo unspecified), the figure is inactive: 144%; as for `COc1ccccc1N1CCN(c2ccc3cc(S(=O)(=O)N4CCCCC4)ccc3n2)CC1`, inactive: 76%; as for `Cc1cc(C)cc(Oc2c(C(F)(F)F)oc3c(CN4CCCC(C)C4)c(O)ccc3c2=O)c1` (stereo unspecified), inactive: 76%. For the compound `CCOc1ccc(-n2nc(CO)c(C(=O)NCc3ccc(Cl)cc3)n2)cc1`, the survival is active: 43%. Then `CC(OC(=O)c1nsc(Cl)c1Cl)C(=O)NCc1cccs1` (stereo unspecified), with inactive: 107%; and `COc1ccc(Br)c2c1-c1nc(NC(=O)c3cccc(C)c3)sc1C2`, with inactive: 44%. Then `CC1CCN(C(=O)CSc2c3c(nc4cc(Cl)ccc24)CCCC3)CC1`, with active: 5%.

On to `Cc1ccc(-c2nnc(SCCOc3ccccc3)o2)cc1`, for which the survival is inactive: 106%. Take `Brc1ccc(-c2ccc(CNCCSc3nnnn3-c3ccccc3)o2)cc1`: the survival was inactive: 67%.

For `CCn1nnnc1SCC(N)=O`, the survival is inactive: 99%.

Regarding `O=C(NC1CC(=O)N(c2ccccc2)C1)c1ccc(S(=O)(=O)N2CCOCC2)cc1` (stereo unspecified), the survival was inactive: 55%. Then `O=C(Nc1ccc(S(=O)(=O)N2CCC(c3nc4ccccc4s3)CC2)cc1)c1ccc(F)cc1`, with inactive: 63%. As for `Nc1no[n+]([O-])c1C(=O)NCCO`, the figure is inactive: 65%.
